Drawing on publication PMC2927779, this text covers binding for 3 substances.

The chains behind the UniProt entries cited, without tags or fusion partners. Where a name states a change or a piece, a line headed by the entry shows the natural chain unless it says otherwise.
UniProt Q24117: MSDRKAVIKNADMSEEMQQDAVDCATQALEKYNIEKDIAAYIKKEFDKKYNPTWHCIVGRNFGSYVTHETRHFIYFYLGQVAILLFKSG
UniProt Q9NFU0: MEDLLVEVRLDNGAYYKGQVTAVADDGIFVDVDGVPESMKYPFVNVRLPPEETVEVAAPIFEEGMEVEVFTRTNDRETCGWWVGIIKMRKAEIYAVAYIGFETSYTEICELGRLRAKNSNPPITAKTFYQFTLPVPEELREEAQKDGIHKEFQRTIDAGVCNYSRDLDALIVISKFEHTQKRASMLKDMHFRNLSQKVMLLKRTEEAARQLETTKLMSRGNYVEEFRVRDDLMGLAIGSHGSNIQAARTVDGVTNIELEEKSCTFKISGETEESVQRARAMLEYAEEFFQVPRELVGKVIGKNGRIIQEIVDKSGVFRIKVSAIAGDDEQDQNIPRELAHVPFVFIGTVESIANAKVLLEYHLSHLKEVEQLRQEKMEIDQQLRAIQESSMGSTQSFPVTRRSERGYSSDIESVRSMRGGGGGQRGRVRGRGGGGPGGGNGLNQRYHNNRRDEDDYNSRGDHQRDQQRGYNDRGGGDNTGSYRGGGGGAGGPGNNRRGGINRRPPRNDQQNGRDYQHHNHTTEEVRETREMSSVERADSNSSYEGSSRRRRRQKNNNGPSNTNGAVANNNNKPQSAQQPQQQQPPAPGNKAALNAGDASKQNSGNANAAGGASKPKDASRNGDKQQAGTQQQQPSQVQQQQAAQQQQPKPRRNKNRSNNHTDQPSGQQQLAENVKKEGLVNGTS

Substitutions are numbered along the chain they refer to. No constants are given. Whether binding was seen depends on the method and setting. For some assays here: In cells and extracts the contact can be indirect. Some entries that bind do so weakly or less than the wild type. For some assays here: Where a sequence is shown, tags or fusion partners need not be part of it.

Assay [1] deals with T1, GFP-tagged Egl protein (Egl::GFP) (Drosophila) (UniProt Q9W1K4).
T1 sequence: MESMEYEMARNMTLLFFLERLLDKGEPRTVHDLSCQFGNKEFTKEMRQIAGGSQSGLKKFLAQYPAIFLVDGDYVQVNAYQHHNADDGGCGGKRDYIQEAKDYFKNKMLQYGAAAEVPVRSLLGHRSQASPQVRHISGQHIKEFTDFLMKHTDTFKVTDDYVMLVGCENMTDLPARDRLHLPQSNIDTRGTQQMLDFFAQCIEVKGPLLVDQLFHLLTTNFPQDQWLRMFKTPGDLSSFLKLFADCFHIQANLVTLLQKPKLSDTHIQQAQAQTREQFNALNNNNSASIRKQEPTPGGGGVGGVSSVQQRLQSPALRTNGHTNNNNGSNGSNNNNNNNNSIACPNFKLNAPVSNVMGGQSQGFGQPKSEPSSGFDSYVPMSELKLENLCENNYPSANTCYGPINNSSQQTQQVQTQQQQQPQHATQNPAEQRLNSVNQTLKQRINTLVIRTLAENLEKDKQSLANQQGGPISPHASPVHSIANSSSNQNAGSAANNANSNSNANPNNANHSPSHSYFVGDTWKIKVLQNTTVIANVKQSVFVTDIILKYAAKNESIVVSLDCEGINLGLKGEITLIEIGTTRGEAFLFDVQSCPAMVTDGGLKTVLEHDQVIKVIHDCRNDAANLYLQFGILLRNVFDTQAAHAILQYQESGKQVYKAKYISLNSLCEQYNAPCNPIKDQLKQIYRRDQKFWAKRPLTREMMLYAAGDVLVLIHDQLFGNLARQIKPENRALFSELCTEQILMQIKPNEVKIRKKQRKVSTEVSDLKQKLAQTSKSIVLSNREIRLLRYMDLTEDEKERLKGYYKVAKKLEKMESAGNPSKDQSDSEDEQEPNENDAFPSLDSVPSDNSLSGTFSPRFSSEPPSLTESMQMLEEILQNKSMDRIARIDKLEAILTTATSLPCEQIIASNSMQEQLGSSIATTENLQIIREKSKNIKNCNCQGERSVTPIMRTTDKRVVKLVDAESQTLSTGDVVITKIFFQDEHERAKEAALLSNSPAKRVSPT
Briefly: co-IP; immunoprecipitation of Egl::GFP, immunoblotting; with and without RNase.

Assay [2] concerns the target T2, Drosophila BicD CTD (amino acids 536–782) fused to GST (Drosophila) (UniProt P16568).
T2 sequence: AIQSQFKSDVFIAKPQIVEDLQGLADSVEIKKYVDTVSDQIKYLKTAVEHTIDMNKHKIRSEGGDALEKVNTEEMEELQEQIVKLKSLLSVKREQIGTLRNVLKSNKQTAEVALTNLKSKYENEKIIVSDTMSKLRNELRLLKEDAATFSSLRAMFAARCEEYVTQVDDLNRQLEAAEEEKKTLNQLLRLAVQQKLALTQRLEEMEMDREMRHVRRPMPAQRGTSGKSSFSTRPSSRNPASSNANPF
Kind of assay: pull-down; GST-BicD CTD as bait, from extracts treated with RNase; western blotting; only the target purified. On the technique in general: In western blotting, separated proteins are transferred to a membrane and probed.

Assay [3] deals with T3, Bicaudal-D (BicD), endogenous, Drosophila (Drosophila (endogenous in embryo extracts)) (UniProt P16568).
T3 sequence: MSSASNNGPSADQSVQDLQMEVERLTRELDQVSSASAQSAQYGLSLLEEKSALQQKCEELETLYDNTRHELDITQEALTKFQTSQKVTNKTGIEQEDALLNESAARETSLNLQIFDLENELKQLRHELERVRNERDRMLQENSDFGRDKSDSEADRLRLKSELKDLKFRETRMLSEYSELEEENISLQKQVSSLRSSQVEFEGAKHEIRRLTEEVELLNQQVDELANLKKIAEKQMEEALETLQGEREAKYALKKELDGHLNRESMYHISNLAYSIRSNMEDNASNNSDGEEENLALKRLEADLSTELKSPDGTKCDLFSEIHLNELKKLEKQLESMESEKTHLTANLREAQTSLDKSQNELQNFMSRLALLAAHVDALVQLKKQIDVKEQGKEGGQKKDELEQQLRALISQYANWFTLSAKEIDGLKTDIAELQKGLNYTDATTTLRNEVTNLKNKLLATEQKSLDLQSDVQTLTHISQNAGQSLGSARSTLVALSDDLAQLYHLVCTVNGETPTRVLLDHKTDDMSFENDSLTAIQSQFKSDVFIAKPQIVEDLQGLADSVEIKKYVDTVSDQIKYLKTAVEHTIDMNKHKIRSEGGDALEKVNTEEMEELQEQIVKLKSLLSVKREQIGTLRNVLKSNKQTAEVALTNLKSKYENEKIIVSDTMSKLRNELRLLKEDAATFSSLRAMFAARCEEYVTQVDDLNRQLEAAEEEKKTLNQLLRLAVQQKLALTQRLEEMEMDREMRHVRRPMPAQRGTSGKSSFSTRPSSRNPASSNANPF
Kind of assay: co-IP; immunoprecipitation of endogenous BicD from Drosophila embryonic extracts, immunoblotting; without RNase.

Assay [4] concerns the target T3, Bicaudal-D (BicD), endogenous, Drosophila (Drosophila (endogenous in embryo extracts)). Briefly: co-IP; immunoprecipitation of endogenous BicD from Drosophila embryonic extracts treated with RNase, immunoblotting.
For assay [5], the target named is T2, Drosophila BicD CTD (amino acids 536–782) fused to GST (Drosophila). Briefly: pull-down; GST-BicD CTD (wild-type or K730M) as bait, from fly embryonic extracts; Coomassie stain, mass spectrometry of the band and western blotting; only the target purified.
The target in assay [6] is T4, BicD CTD K730M, yeast two-hybrid fusion (Drosophila) (UniProt P16568).
T4 sequence: T2 sequence with K195M
Briefly: two-hybrid; yeast two-hybrid assays.

The target in assay [7] is T5, BicD CTD, yeast two-hybrid fusion (Drosophila) (UniProt P16568).
T5 sequence: T2 sequence
Kind of assay: two-hybrid; yeast two-hybrid assays.

“Dynein light chain (Dlc) (from UniProt Q24117 1-89)”: in assay [1], the binding entry is given as “binds”.

With “Fragile X mental retardation protein (FMRP), endogenous, Drosophila (from UniProt Q9NFU0 1-684)”, the binding entry in assay [1] is “no binding”; in assay [2], “no binding (condition: with RNase treatment)”; in assay [3] it was “binds”; in assay [4], “no binding (condition: with RNase treatment)”; in assay [5] it was “binds”.

Take “subfragment of FMRP (aa 220–618), yeast two-hybrid fusion (from UniProt Q9NFU0 220-618) (domain or fragment)”: the binding result was “no binding” in assay [6] and “binds weakly” in assay [7].
